Measured values as given in PubChem BioAssay AID686978 (National Center for Advancing Translational Sciences (NCATS), 2013).
The whole screen tested about 420,000 compounds, of which about 64,000 (15%) were called active. This list was built around the results that the source calls inconclusive (neither active nor inactive); the mix of calls is not that of the screen. Calls follow the shape of the dose curve; as a rule, active = well fitted inhibition curve with a large enough effect; inconclusive = small, poorly fitted or top-dose-only effect; inactive = flat fitted curve, though single readings scatter. Potencies of inconclusive entries are left out as doubtful fits.

Assay: qHTS for Inhibitors of human tyrosyl-DNA phosphodiesterase 1 (TDP1): qHTS in cells in absence of CPT; also: nearly all actives have a fitted effect of over 55% in size
Details: DT40 Tdp1-/- hTDP1 cells, no CPT, ATP luminescence, 48 h; series mostly up to 46.2 µM
Outline: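 Chicken DT40 Tdp1-/- cells complemented with human TDP1, screened without camptothecin (DMSO vehicle only), 400 cells/well. Compounds pin-transferred, cells incubated at 37 °C for at least 48 hr. Growth read as ATP-dependent luminescence (CellTiter-Glo, 30 min at RT).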
Potency is read from the fitted curve at half-maximal effect; tags tell the direction and shape of the fitted curve.

Structure (SMILES)	Potency
O=C(c1ccccc1)c1ccc2nc(-c3ccc(NC(=O)c4ccccc4F)cc3)[nH]c2c1	active: 3.26 µM
CC(/C=C/c1ccccc1)=N\Nc1ccccc1[N+](=O)[O-]	inconclusive [inhibitor, single point]
NC(=O)C1CCN(c2cc(Cl)nc(N)n2)CC1	inconclusive [inhibitor, single point]
O=C(O)c1ccsc1Cc1cccs1	inactive
Nc1nc(-c2ccccc2Br)cs1	inactive
CCC(=O)N1N=C(c2ccc(C)o2)CC1c1ccc(Br)cc1 (stereo not given)	inconclusive [inhibitor, partial curve, poor fit]
CC(=O)N=c1scc(-c2ccccc2)n1-c1cccc(O)c1	active: 16.4 µM
Cn1c(=O)cc(Nc2ccc(Cl)cc2)[nH]c1=O	active: 20.6 µM
Cc1nc2cc(NC(=O)[C@@H]3C[C@@H](Sc4ccccn4)CN3Cc3ccccc3C)ccc2s1	inactive
COc1ccc(N2CCN(C(=O)c3ccc(S(=O)(=O)N4CCCC4)cc3)CC2)cc1	inconclusive [inhibitor, single point]
O=C(NC1CCCCC1)C(c1ccc(F)cc1)N(Cc1cccs1)C(=O)CN1C(=O)c2ccccc2S1(=O)=O (stereo not given)	active: 16.4 µM
CCOc1cc(CNC(=O)NC2COc3ccc(OC)cc3C2)cc(OCC)c1OCC (stereo not given)	inconclusive [inhibitor, partial curve]
CNC(=O)c1ccsc1NC(=O)CS(=O)(=O)c1ccc(F)cc1	inconclusive [inhibitor, single point]
COC(=O)c1ccccc1NC(=O)Nc1nnc(N2CCC(C)CC2)s1	inactive
COc1ccc2nc(NN=C(C)c3ccccn3)cc(C)c2c1	active: 2.91 µM
O=C(NCC1CCCO1)c1onc(CSc2ccccc2F)c1C(=O)O (stereo not given)	inactive
CN(Cc1cn(C)nc1-c1ccccc1F)CC1CCN(Cc2ccccc2)CC1	inconclusive [inhibitor, single point]
Cc1ccc(Cl)cc1NC(=O)CN1C(=O)NC(C)(C2CC2)C1=O (stereo not given)	inactive
Cc1cccc2nc(-c3cccc(NS(=O)(=O)c4ccccc4)c3)cn12	active: 23.1 µM
CN(c1ccc(F)cc1)S(=O)(=O)c1ccc(Cl)c(C(=O)NCC(c2ccco2)N2CCCCC2)c1 (stereo not given)	active: 2.31 µM
Cc1ccc(C)c(CSc2nc3ccncc3n2CC(=O)Nc2ccc(N(C)C)cc2)c1	inconclusive [inhibitor, single point]
NC(=O)c1c(NC(=O)c2c(F)cccc2F)sc2c1CCN(Cc1ccccc1)C2	active: 16.4 µM
Cc1cc(-n2c(C)cc(C(=O)CN3C(=O)NC4(CCCCC4)C3=O)c2C)no1	inconclusive [inhibitor, partial curve, poor fit]
Cc1ccc(CNC(=O)CCNC(=O)Cn2ccc3ccccc3c2=O)cc1	inactive
COC(=O)c1cnn(-c2nc(-c3ccccc3)cs2)c1N	inconclusive [inhibitor, single point]

Structure (SMILES)	Potency
CCCCn1c(O)c(N=NC(=O)Cn2c(C(F)(F)F)nc3ccccc32)c2ccccc21	inconclusive [inhibitor, full curve]
CCOC(=O)c1ccc(NC(=O)COc2ccccc2CNCCc2ccccc2)cc1	inconclusive [inhibitor, single point]
CC12CCC(=O)N1C(C(=O)N1CCN(S(=O)(=O)c3ccc(Br)cc3Cl)CC1)CS2 (stereo not given)	inconclusive [inhibitor, single point]
Nn1c(SCC(=O)Nc2ccc3c(c2)OCO3)nnc1-c1ccccc1	inactive
Cc1ccc(C)c(Cn2c3ccccc3c3cnn(CC(=O)NCc4ccccc4)c(=O)c32)c1	active: 20.6 µM
Cc1cc([N+](=O)[O-])nn1CC(=O)NCc1ccco1	inactive
Cc1cc(C)c(NC(=O)Nc2ccc3snnc3c2)c(C)c1	active: 18.4 µM
O=C(CNC(=O)C1CCCCC1)NCc1ccco1	inactive
CCOc1ccc(/C=N/OC(C)C(=O)NCc2ccc3c(c2)OCO3)cc1 (stereo not given)	inconclusive [inhibitor, single point]
c1cncc(-c2nc3ccccc3o2)c1	inactive
Clc1ccccc1CNc1ncnc2c1c(-c1ccccc1)cn2-c1ccccc1	inconclusive [inhibitor, single point]
COC(=O)C1=C(CN2CCc3ccccc32)NC(=O)NC1c1cc(C)ccc1C (stereo not given)	inconclusive [inhibitor, single point]
CCCNC(=O)c1ccc(N2CCC3(CC2)CC(c2cccc(Br)c2)=NO3)c(NC(=O)c2ccco2)c1	active: 6.51 µM
O=c1cc(-c2ccccc2)nc2c(Cl)cc(Cl)cn12	inconclusive [inhibitor, full curve, poor fit]
CCOC(=O)c1ccc2c(c1)n(CC)c(C)[n+]2CC	inactive
CC(C)(C)OCC1CO1 (stereo not given)	inactive
O=C(c1ccncc1)N1CCC2(CC1)CN(c1cccc(-c3ccccc3)c1)C2	inconclusive [inhibitor, single point]
COC(=O)c1ccc(NC(=S)NCC2CC2)cc1	inactive
COCCCNC(=O)CSc1nc2c(sc3ccccc32)c(=O)n1CCCC(=O)NCCOC	inactive
COc1ccc(-c2nc3c(C)cc(Br)cn3c2Cc2ccc(C)cc2)cc1OC	inconclusive [inhibitor, single point]
CCN(CC)C(=O)c1cccc(-c2csc(C(C)(NC(C)=O)c3ccc(OC)cc3)n2)c1 (stereo not given)	active: 13 µM
O=C(c1cccs1)N1CCN(Cc2ccc3c(c2)OCO3)CC1	inconclusive [inhibitor, partial curve]
CCOC(=O)CN1C(=O)N(c2ccccc2OC)S(=O)(=O)c2ccccc21	inactive
COCCN1Cc2cccc(C(=O)NC3CCCCCC3)c2C1=O	inconclusive [inhibitor, single point]
CCN(CC)CCN1C(=O)C(=O)/C(=C(/O)c2ccc(C)cc2)C1c1cccnc1 (stereo not given)	inactive
